Reference: PubChem BioAssay AID504466 (National Center for Advancing Translational Sciences (NCATS), 2011)
About 4,200 (1.3%) of roughly 330,000 compounds were called active. The shares of active, inactive and inconclusive entries below differ from those in the screen. Calls come from the whole dose curve; as a rule, active = well fitted activation curve with a large enough effect; inconclusive = small, poorly fitted or top-dose-only effect; inactive = no such curve, though single readings can be large or run the other way. Where the call is inconclusive, the potency comes from a doubtful curve fit.

Assay: qHTS screen for small molecules that induce genotoxicity in human embryonic kidney (HEK293T) cells expressing luciferase-tagged ELG1; note: nearly all actives have a fitted effect of over 60% in size; for activity change, positive = activation: % of control where 0% means no effect
Settings: HEK293T ELG1-luciferase reporter, luminescence, 16 h; series mostly up to 46 µM; activity change, positive = activation: at the top concentration
Summary of the method: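 Reporter readout depends on ELG1 protein level, which increases with genetic stress. After 16 hr compound exposure at 37 °C, luciferase activity was quantified using ONE-Glo.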
Potency is the fitted concentration of half-maximal effect; tags give direction and shape of the fitted curve.

Structure (SMILES) | Potency | activity change, positive = activation
CC#CCOC(=O)c1c(C)nc2sc3c(c2c1N)CCC(O)C3 (stereo not given) | active: 16.4 µM | –
O=c1[nH]c(-c2ccccn2)nc2sc(-c3ccccc3)cc12 | active: 7.3 µM | –
Cc1ccc(SCC(=O)c2cc(C)c(OC(=S)N(C)C)c(C)c2)cc1 | active: 7.31 µM | –
Cn1c(SCC(=O)NCC2CCCO2)ncc(C(=O)Nc2ccccc2)c1=O (stereo not given) | inconclusive: 20.6 µM [activator, single point] | –
CC(=O)Nc1ccc(C(=O)CSc2ncn(-c3ccccc3)n2)cc1 | inconclusive: 12.6 µM [activator, partial curve] | –
CC(C)NC(=O)N(C)C[C@H]1Oc2c(NC(=O)c3ccc(-c4nccs4)cc3)cccc2C(=O)N([C@@H](C)CO)C[C@H]1C | – | inactive: 1.44%
COC(C[C@@H]1O[C@@H]1[C@@H](O)COCc1ccccc1)OC | – | inactive: 1.68%
O=C(NC1CCCCC1)c1cc(-c2ccccc2Cl)on1 | active: 20.6 µM | –
CC1(C)CNC(=O)c2sc(N3CCCCC3)nc2C1 | inconclusive: 11.2 µM [activator, partial curve] | –
COc1cc(/C=N/NC(=O)CN2CCCCC2)ccc1OCc1ccc(Br)cc1 | inconclusive: 9.2 µM [activator, partial curve] | –
CC(=O)c1cccc(OCc2cc(C(=O)N(C)Cc3cnccn3)no2)c1 | inconclusive: 3.66 µM [activator, partial curve, poor fit] | –
O=C(c1cc(-c2ccc(F)cc2)on1)N1CCCc2ccccc21 | inconclusive: 10.3 µM [activator, partial curve, poor fit] | –
CCC(C(=O)NCCC(C)C)n1ccc2cc(S(=O)(=O)N3CCCCC3)ccc21 (stereo not given) | – | inactive: -6.59% [at 9.26 µM]
COc1ccc(-c2csc(NC(=O)Cc3ccccc3)n2)cc1OC | – | inactive: 0.759% [at 9.26 µM]
CCOC(=O)Cn1cnc2c(sc3nc(C)cc(C)c32)c1=O | inconclusive: 9.2 µM [activator, partial curve, poor fit] | –
CCOC(=O)N1CCN(C(=O)c2ccccc2NC(C)=O)CC1 | inconclusive: 23.1 µM [activator, partial curve, poor fit] | –
CC(O)c1ccc(OCCN(C)c2ccccn2)cc1 (stereo not given) | inconclusive: 18.3 µM [activator, partial curve, poor fit] | –
O=C(N/N=C/c1ccccn1)c1cc(-c2ccccc2)nc2ccccc12 | inconclusive: 29.1 µM [activator, single point] | –
CCOC(=O)N/N=C(\C)c1cccs1 | inconclusive: 20.6 µM [activator, single point] | –
CCSc1nnc(-c2ccc(Cl)cc2Cl)o1 | active: 4.11 µM | –
CCn1c(=O)cc(SCC(=O)N(C)Cc2ccccc2)c2ccccc21 | inconclusive: 8.2 µM [activator, partial curve, poor fit] | –
Cc1csc(NC(=O)c2ccc(Cl)nc2)n1 | inconclusive: 18.3 µM [activator, partial curve, poor fit] | –
O=C(C1CCCCC1)N1CCN(S(=O)(=O)c2cccc([N+](=O)[O-])c2)CC1 | – | inactive: 1.43%
NS(=O)(=O)c1ccc(CCNC(=O)c2ccc3ccccc3n2)cc1 | inconclusive: 23.1 µM [activator, partial curve, poor fit] | –

Structure (SMILES) | Potency | activity change, positive = activation
CCCn1c(SCC(=O)NCCc2ccccc2)nnc1C(C)C | – | inactive: -1%
Cc1ccc(Nc2nc(COC(=O)C3CC3)cs2)cc1 | inconclusive: 8.2 µM [activator, partial curve] | –
CCC(C)[C@H](NC(=O)NCc1cccc(OC)c1)C(=O)OC (stereo not given in full) | – | inactive: 2.8%
CC[C@]12c3[nH]c4cc(CCC(=O)N(C)C)ccc4c3CCN1C(=O)[C@@H](CC(=O)NC(C)(C)C)C[C@@H]2C(=O)N1CCN(C(=O)c2ccco2)CC1 | inconclusive: 23.1 µM [activator, single point] | –
Cc1cc(NCCN2CCOCC2)n2nc(C)c(-c3ccccc3)c2n1 | – | inactive: 3.13%
O=C(Nc1nnc(Cc2ccccc2F)s1)Nc1ccccc1F | inconclusive: 16.4 µM [activator, single point] | –
Clc1ccc(-n2ncc3c(NCCCn4ccnc4)ncnc32)cc1 | active: 8.2 µM | –
Cc1nc2ccc(NC(=O)Cc3c(F)cccc3Cl)cc2s1 | inconclusive: 6.51 µM [activator, partial curve, poor fit] | –
C=CCOc1ccc(C(=O)NC2CCCCC2)cc1 | inconclusive: 7.08 µM [activator, partial curve, poor fit] | –
CC(C)c1ccc(/C=C2\NC(=O)NC2=O)cc1 | inconclusive: 20.6 µM [activator, partial curve, poor fit] | –
O=C1C[C@@H]2CCN3C(=O)CCC[C@@H]([C@H]23)[C@H]1Cc1ccccc1 | – | inactive: 0.871%
Cc1ccc2nc(-c3cccc(N)c3)[nH]c2c1 | inconclusive: 1.46 µM [activator, partial curve] | –
Cc1ccc(S(=O)(=O)C(C)C(=O)NCCS(=O)(=O)c2ccc(Cl)cc2)cc1 (stereo not given) | inconclusive: 4.11 µM [activator, single point] | –
N/C(=N\OC(=O)Nc1ccc(Cl)cc1)c1ncc(C(F)(F)F)cc1Cl | inconclusive: 20.6 µM [activator, partial curve, poor fit] | –
COc1cccc(N2CCN(C(=O)c3cc(-c4ccc(F)cc4)[nH]c3C)CC2)c1 | – | inactive: -3.82%
Cc1cc(NC(=O)CSc2nc3ccccc3c(=O)n2CCCC(=O)NCc2ccco2)n[nH]1 | inconclusive: 23.1 µM [activator, partial curve, poor fit] | –
Cc1ccccc1C(=O)NC(CC(C)C)C(=O)Nc1cccc(S(=O)(=O)N(C)C)c1 (stereo not given) | inconclusive: 29.1 µM [activator, single point] | –
CC(C)(C)NC(=O)COc1ccc(S(=O)(=O)N2CCCC2)cc1 | – | inactive: 1.78%
COc1ccc(OC)c(S(=O)(=O)NCC(c2ccco2)S(=O)(=O)c2ccccc2)c1 (stereo not given) | – | inactive: -0.605%
O=C(CSc1nnnn1-c1ccccc1F)Nc1nc2ccccc2s1 | inconclusive: 29.1 µM [activator, single point] | –
COc1cc(CC(=O)Nc2ncc(C)s2)cc(OC)c1OC | inconclusive: 16.4 µM [activator, partial curve, poor fit] | –
Nc1nc(CSc2ncn(-c3ccccc3)n2)cs1 | inconclusive: 9.2 µM [activator, partial curve, poor fit] | –
O=C(O)CCc1ccc(-c2ccc(Cl)cc2)o1 | inconclusive: 29.1 µM [activator, partial curve, poor fit] | –
COc1ccc(-c2ccc(-c3noc(C(C)C)n3)c(OC)n2)cc1 | inconclusive: 25.9 µM [activator, single point] | –

Structure (SMILES) | Potency | activity change, positive = activation
Nc1nc(N2CCN(C(=O)c3ccco3)CC2)nc2ccc(Br)cc12 | inconclusive: 3.26 µM [activator, single point] | –
Cc1ccc(C(=O)O)cc1NC(=S)NC(=O)Cc1ccccc1 | – | inactive: 3.28%
CC(=O)NC(=S)Nc1sc2c(c1C#N)CCCCC2 | active: 2.06 µM | –
COc1ccc2c(c1)c(=O)cc(-c1ccccc1)n2C | inconclusive: 23.1 µM [activator, partial curve, poor fit] | –
COc1ccc(OC)c(-n2c(N)c(C(=O)NCC3CCCO3)c3nc4ccccc4nc32)c1 (stereo not given) | – | inactive: -15.6%
N#CC1(NC(=O)COC(=O)c2ccccc2SCC(=O)N2CCCC2)CCCCC1 | – | inactive: -6.63%
Cn1cccc1C(=O)C(=O)Nc1ccc(F)c(F)c1 | inconclusive: 1.46 µM [activator, full curve, poor fit] | –
O=C(Cn1cccc1C(=O)c1ccccc1)NCc1ccccc1Cl | inconclusive: 23.1 µM [activator, partial curve, poor fit] | –
Cc1ccc(Cc2cnc(NC(=O)c3ccco3)s2)cc1 | active: 1.84 µM | –
CCCNC(=O)/C=C/c1ccc(C(C)C)cc1 | inconclusive: 20.6 µM [activator, partial curve, poor fit] | –
Cc1c(CCC(=O)O)c(=O)oc2cc(OCc3ccccc3Br)ccc12 | – | inactive: -3.02%
COc1ccc(OC)c(NC(=O)c2[nH]c(C)c(C(C)=O)c2C)c1 | inconclusive: 14.6 µM [activator, partial curve, poor fit] | –
COc1ccccc1N(CC(=O)NC1CCCC1)C(=O)CCC(=O)Nc1ccccn1 | – | inactive: -3.3%
O=S(=O)(CCN1CCN(c2ccccc2O)CC1)c1cc(Cl)ccc1Cl | – | inactive: 3.29%
O=C(Nc1cnn(Cc2ccc(F)cc2)c1)c1cc(-c2cccs2)on1 | inconclusive: 32.6 µM [activator, partial curve, poor fit] | –
C/C(=N/NC(=O)c1cc(C(C)C)[nH]n1)c1cccs1 | inconclusive: 1.3 µM [activator, full curve] | –
O=C(CCl)Nc1cn(-c2ccccc2)nc1-c1ccc(F)cc1 | – | inactive: -3.63%
O=C(NCCc1ccc(Cl)cc1)c1ccc2c(c1)OCO2 | inconclusive: 9.2 µM [activator, partial curve] | –
C/C(=N\Nc1nc2ccccc2s1)c1cccs1 | inconclusive: 1.46 µM [activator, full curve] | –
COc1ccc(CNc2nc3c(c(=O)[nH]c(=O)n3C)n2Cc2ccccc2)cc1 | inconclusive: 14.6 µM [activator, partial curve, poor fit] | –
COC(=O)Nc1nc2ccc(Br)cc2s1 | inconclusive: 8.2 µM [activator, partial curve, poor fit] | –
COc1ccccc1NC(=O)COc1ccccc1C(=O)c1cnn(-c2ccccc2)c1 | inconclusive: 23.1 µM [activator, partial curve, poor fit] | –
